According to the supplement of paper PMC3334620:
Over roughly 33,000 sequences, “E-score (-0.5 to 0.5)” has its median near -0.021; the highest 2% begin near 0.32. The list shows a part of the results.

molecular target: T1, Zap1 (UniProt P47043); assay: PBM E-score (8-mer binding enrichment) (E-score (-0.5 to 0.5)); higher = stronger / more preferred TF binding; most listed sequences are background and not binding sites; conditions: protein concentration: 200 nM; construct: GST-full length
T1 sequence: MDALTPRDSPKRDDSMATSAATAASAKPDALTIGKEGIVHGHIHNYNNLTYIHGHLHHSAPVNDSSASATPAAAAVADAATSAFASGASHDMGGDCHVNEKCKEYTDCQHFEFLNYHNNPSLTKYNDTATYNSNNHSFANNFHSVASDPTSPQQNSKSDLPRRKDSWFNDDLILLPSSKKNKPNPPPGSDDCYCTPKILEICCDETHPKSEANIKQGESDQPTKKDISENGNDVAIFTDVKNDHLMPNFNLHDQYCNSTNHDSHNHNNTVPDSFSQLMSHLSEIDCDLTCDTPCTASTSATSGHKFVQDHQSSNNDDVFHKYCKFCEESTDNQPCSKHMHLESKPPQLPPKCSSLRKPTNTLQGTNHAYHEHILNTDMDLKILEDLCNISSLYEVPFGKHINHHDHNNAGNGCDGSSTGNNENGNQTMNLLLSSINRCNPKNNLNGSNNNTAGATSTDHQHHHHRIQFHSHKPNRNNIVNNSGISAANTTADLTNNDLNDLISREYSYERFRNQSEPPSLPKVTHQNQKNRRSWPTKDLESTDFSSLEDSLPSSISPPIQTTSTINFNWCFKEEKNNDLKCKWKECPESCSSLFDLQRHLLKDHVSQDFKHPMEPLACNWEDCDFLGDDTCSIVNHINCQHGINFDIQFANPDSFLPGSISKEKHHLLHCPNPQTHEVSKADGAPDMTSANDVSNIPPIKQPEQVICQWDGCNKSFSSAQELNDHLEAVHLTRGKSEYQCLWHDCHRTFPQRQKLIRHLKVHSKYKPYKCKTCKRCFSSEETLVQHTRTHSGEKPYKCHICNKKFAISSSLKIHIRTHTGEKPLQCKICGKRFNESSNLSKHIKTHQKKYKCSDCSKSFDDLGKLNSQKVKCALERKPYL
Summary of the method: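 GST-tagged yeast TFs (full-length or DNA-binding domain) were made by PURExpress in vitro transcription/translation and applied at about 100-200 nM to universal all-10-mer Agilent arrays. The arrays were made double-stranded by primer extension, on fresh or once-stripped slides. Bound protein was detected with fluorescent anti-GST, and scans were normalised with masliner. Each ungapped eight-base word, pooled with its reverse complement, received an E-score (modified Wilcoxon-Mann-Whitney statistic) from the Universal PBM Analysis Suite.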

| Sequence | PBM E-score |
| --- | --- |
| TCGAACGA | -0.212 |
| GAGGTATC | 0.219 |
| AGCTAGAG | -0.167 |
| CGGCTTTC | -0.0955 |
| ACCCCTCT | 0.174 |
| ACTCCTTC | -0.358 |
| ACCGTGTG | 0.147 |
| GAGGTCTA | 0.175 |
| GTTAGGCA | -0.125 |
| AATTACTC | 0.05 |
| CGCAATCC | 0.102 |
| ACTGTCAG | -0.00239 |
| CGTTGGCA | -0.131 |
| AACATCGT | -0.00764 |
| AACTACCG | 0.179 |
| GACCTCTC | 0.203 |
| CTCGGAAG | -0.0377 |
| CTAGAGAC | -0.37 |
| GGGGTTGA | 0.0856 |
| GATAAACC | 0.21 |
| CGGGTCGA | 0.0958 |
| ACATGTGC | -0.0361 |
| GATGCTGC | -0.273 |
| ACGGATTG | 0.0701 |
| AAAGGGTG | 0.247 |

| Sequence | PBM E-score |
| --- | --- |
| CCTACCGA | -0.0771 |
| AAGCCAAC | -0.066 |
| AACCAATG | 0.233 |
| GCGTATGA | -0.193 |
| AATTATAG | 0.174 |
| CTAGCGAG | -0.272 |
| AGGTAAGA | 0.125 |
| ATCAACAT | 0.00735 |
| CCAGTCCC | -0.139 |
| ATTTTCAC | 0.153 |
| CAGCGTGC | -0.26 |
| TGCCTCCA | -0.248 |
| TTCGTCAA | 0.0959 |
| AAGAACGT | 0.146 |
| CCCCATGC | -0.201 |
| ACGGGCAA | -0.15 |
| CAGACCCG | 0.0602 |
| ATCAGTAC | -0.0201 |
| CTACTATC | 0.121 |
| CAATTCAG | -0.113 |
| GTCTAAAC | 0.232 |
| CGATCGAC | -0.104 |
| ATTCAATA | 0.149 |
| TTCATCAA | 0.0934 |
| TATTCTAA | 0.215 |

| Sequence | PBM E-score |
| --- | --- |
| TAGCATGA | 0.137 |
| CGAATATC | -0.0544 |
| CACCTGAG | -0.158 |
| AGGATAAG | -0.0574 |
| ACAGGAAT | 0.00039 |
| GCGGCTAA | -0.027 |
| TGGGTGAA | 0.122 |
| GACCAGGA | -0.0635 |
| ACCCATCC | -0.0783 |
| CATTAGTA | 0.0876 |
| AGCACTTC | -0.247 |
| GAGCAATA | -0.0247 |
| AAGTGGGG | -0.196 |
| TCGATAGA | -0.102 |
| CACATCTC | -0.0909 |
| TCGTTAAA | -0.0347 |
| TCATCAAA | -0.136 |
| CCTCCAAG | 0.217 |
| AGGCACCA | -0.0473 |
| AATCGATA | 0.118 |
| ACTCATCA | -0.0219 |
| ACCGTTAT | 0.133 |
| AGAGCCCG | -0.192 |
| GAACACCA | 0.036 |
| ATTAACAA | 0.267 |

| Sequence | PBM E-score |
| --- | --- |
| GAATGACC | 0.338 |
| ACGCCTAC | -0.14 |
| AATAGTTA | 0.15 |
| CCTTCCGC | -0.234 |
| GTCTCGTA | -0.137 |
| GAGGATCC | -0.0466 |
| ACACATGC | -0.0152 |
| ATCACCTA | 0.0548 |
| TAAACAGA | 0.155 |
| CTCAAGCA | -0.102 |
| AATCATGC | -0.141 |
| CATTCTGC | -0.215 |
| AAGTGGAG | -0.0859 |
| CACGACGA | -0.0826 |
| ATCCGTTC | 0.0713 |
| AATACAAT | -0.0208 |
| AACGGTGA | 0.0158 |
| CAAAACGA | 0.0917 |
| CAAATTAA | 0.0842 |
| ATGAGATC | 0.00613 |
| ACAAGGGT | 0.387 |
| TCATGGAA | -0.018 |
| AGTAGCAC | -0.148 |
| GGAACTCA | -0.0586 |
| AAGGATAG | -0.00757 |

| Sequence | PBM E-score |
| --- | --- |
| CTGACCGC | 0.154 |
| TCATAGGA | -0.0078 |
| ACATGGGT | 0.139 |
| AGCTACGC | -0.21 |
| TAAAGAAA | 0.207 |
| ACGTTAGG | -0.0372 |
| ACGAACGC | -0.0863 |
| CGCGGATA | 0.155 |
| ACTGAAAA | 0.0345 |
| GGTAGTCA | 0.0872 |
| ATCACCAG | 0.132 |
| CTTCTCTC | -0.105 |
| CTTAGCTA | -0.143 |
| ACGCCTCG | -0.175 |
| GCGTTGTA | -0.0902 |
| CCATGAAA | 0.258 |
| CTAGCCAC | -0.171 |
| GTATTCGA | -0.0598 |
| GTGGGCGA | -0.0639 |
| ACGGATCT | -0.163 |
| CCGGAGAC | 0.17 |
| CAGAGGAC | 0.0434 |
| ACTAGTAT | 0.101 |
| ATAGAACC | 0.172 |
| ACAGACCA | 0.134 |

| Sequence | PBM E-score |
| --- | --- |
| CTGCACAG | -0.114 |
| AGGGATGG | 0.109 |
| GGGAAGAC | -0.0707 |
| TAGCTAAA | -0.0493 |
| AGTTTTGC | 0.0622 |
| CGGACTAA | 0.093 |
| AATCCCCA | 0.0194 |
| ACGACGCA | -0.0461 |
| CACACCAG | -0.0223 |
| GGTACTAC | 0.305 |
| CTTCGGGC | -0.304 |
| CCACTAAG | 0.225 |
| AGTGGCAT | -0.224 |
| AGTAGCCC | 0.0109 |
| CGCAGTTC | -0.217 |
| GCGAAGCA | -0.121 |
| AGATTTTA | -0.0311 |
| GGAGGACC | -0.202 |
| TATTGGGA | 0.123 |
| CCCGATTA | 0.186 |
| CACCGATG | -0.1 |
| AGGACTGC | -0.307 |
| AGACTCAG | -0.0765 |
| GAATTCAC | 0.0638 |
| GTATCCAA | 0.0926 |

| Sequence | PBM E-score |
| --- | --- |
| CCATGTGA | -0.0922 |
| CACCGGAA | 0.0491 |
| TCCAATCA | -0.058 |
| CTCGTTGA | -0.0558 |
| AAATTAGA | 0.114 |
| GAAAGTCC | 0.00246 |
| ATTGACAG | -0.00112 |
| ACCTTTGA | 0.247 |
| ATCCTCAA | 0.118 |
| ACCAGCGA | 0.0676 |
| CGGGTAAC | 0.351 |
| ACGTCATG | -0.101 |
| ATTACGCG | 0.0287 |
| GCAATCGA | -0.181 |
| CAGCCGCA | -0.191 |
| AGATAAAA | 0.194 |
| AATTTCGT | 0.0233 |
| AGTAACGA | 0.0604 |
| AGGAACTC | -0.128 |
| GACACATA | -0.0235 |
| AAGCGACA | -0.236 |
| CGCTTGAG | -0.189 |
| AAGGTAGT | 0.373 |
| AACGCAGC | -0.0978 |
| TCGCTAAA | 0.117 |

| Sequence | PBM E-score |
| --- | --- |
| AGGTCCAT | 0.016 |
| CACTCACA | 0.0429 |
| ACTGTTCA | -0.167 |
| CGATATCA | -0.0414 |
| CACCGTCC | -0.206 |
| AATCGCCG | -0.171 |
| GCCGGTGA | 0.0983 |
| CCGACACA | -0.0424 |
| AGGCCGCA | -0.189 |
| ATTATATA | 0.207 |
| GGACTCCA | -0.22 |
| AGAAAACG | -0.0564 |
| CCCCATGA | 0.222 |
| ACCATCCA | -0.112 |
| CCATCAAG | -0.00784 |
| CGTCCGGA | -0.236 |
| ACGTCTAT | -0.101 |
| ATTAAGCG | -0.0207 |
| CCTGGGCA | -0.264 |
| CACGTATA | -0.134 |
| TAACCTCA | 0.418 |
| GCGGTGAA | -0.167 |
| CATCGGAC | -0.0899 |
| AAATCTGA | 0.0458 |
| AGCTATGA | -0.186 |

| Sequence | PBM E-score |
| --- | --- |
| AGCGTTCA | -0.326 |
| GGCAAACC | 0.0541 |
| CATACCTC | 0.207 |
| ACTCATCC | -0.0917 |
| AAACAGCC | -0.036 |
| GCTACGAA | -0.00238 |
| ATGATTGG | -0.0726 |
| GCATGTAA | 0.0029 |
| AGCCTGAC | -0.229 |
| ACCTCTCT | 0.0304 |
| ATCAGGCA | -0.143 |
| AACGCTCC | -0.218 |
| GATACCCA | 0.184 |
| GACCCACC | 0.245 |
| AAAGTGAT | 0.0131 |
| CAATCTGG | -0.0575 |
| TAGATCAA | 0.0091 |
| CACATTAA | -0.095 |
| GCACGATA | 0.0752 |
